# Reference: PMC5892938
# The list shows a part of the results. The source does not settle which construct or isoform was used.
# Target: GST-SBP-ILF3 (Homo sapiens) (UniProt Q12906)
# Assay: targeted RNA Bind-n-Seq
# Settings: RBNS binding buffer: 25 mM Tris pH 7.5, 150 mM KCl, 3 mM MgCl2, 0.1% Tween, 0.5 mg/mL BSA, 1 mM DTT; 27 nM protein, 750 pM RNA pool; temperature not stated; high values mean tight binding; sequences stand for … in GGGUAAAAGCGAGGUGAA…CGGGACAAGUAUUAUGGG
row,Sequence,binding signal (log2 fold change)
1,GUGUGGUGUGUUGGUCUCUAACACACUACA [gtspaired],-0.543
2,UUUUUUUUUUGAGAGGGAGCCCCUUUCCAG [tttttgagapaired],0.303
3,GUGGUUGGUGUUGGCUCCUAACACCGACCG [gtspaired],-0.862
4,UUUUUUUUUUGAGAGCGAGUCGUUCUCCUG [tttttgagapaired],0.393
5,UUCUCUCUUCCUCCAGCGGAGGAGGGGAGA [ctspaired],-0.363
6,UUUUUUUUUUGAGAGUGGGGCAUUCUCCGG [tttttgagapaired],0.538
7,GUGUGGUGUGUUGGCGUCUAACACAUCGCA [gtspaired],-0.745
8,GGUGGUGGUGUUGGCCUCUAACACCACUAC [gtspaired],-0.355
9,UUUUUUUUUUGAGAGCGUAGCGUUCUUCUG [tttttgagapaired],0.491
10,UUUUUUUUUUGAGAACGGUACGUUCUCCAG [tttttgagapaired],0.116
11,UUCUCUUCUCCUCCGAGGGAGGGGAAGGGA [ctspaired],-0.255
12,GGUGUUGGUGUUGGAGUCUAACACCAGCGC [gtspaired],-0.278
13,UUUUUUUUUUGAGAGCGGAACGUUCUCCGG [tttttgagapaired],0.0206
14,GGUGGUGGUGUUGGUCCCUAACACCGCCGC [gtspaired],-0.539
15,GGUGGUUGUGUUGGUAUCUAACACAGCUAC [gtspaired],-0.735
16,UUUUUUUUUUGAGAUGGCUACCAUCUUCUG [tttttgagapaired],0.509
17,GUGGUGUGUGUUGGCAUCUAACACAUACUA [gtspaired],-0.865
18,GUUGUGUGUGUUGGAGUCUAACACACGCAA [gtspaired],-0.0577
19,UUUUUUUUUUGAGACUGGAGCAGUCUUCUG [tttttgagapaired],0.833
20,UUUUUUUUUUGAGACUGGUUCAGUCUCCUG [tttttgagapaired],0.113
21,GUGGUGUGUGUUGGAGCCUAACACAUACCG [gtspaired],-0.62
22,UUUUUUUUUUGAGACUGGUCCAGUCUCCUG [tttttgagapaired],0.917
23,UUUUUUUUUUGAGACGGGACCCGUCUCCUG [tttttgagapaired],0.831
24,UUUUUUUUUUGAGAUGGGACCCAUCUCCUA [tttttgagapaired],0.47
25,GUGUGUUGUGUUGGCCCCUAACACAACGCA [gtspaired],-0.0487
26,GGUGUUGGUGUUGGACCCUAACACCGACGC [gtspaired],-0.235

row,Sequence,binding signal (log2 fold change)
1,UUUUUUUUUUGAGAGGGCUUCCCUCUCCUA [tttttgagapaired],0.273
2,GUGUGGUGUGUUGGACCCUAACACACUACG [gtspaired],-0.312
3,UUUUUUUUUUGAGAUGGGAACUAUCUCCAG [tttttgagapaired],0.269
4,GUGUGGUGUGUUGGAAUCUAACACACUACG [gtspaired],-0.431
5,GGUGUGUGUGUUGGUGUCUAACACAUACGC [gtspaired],-0.765
6,GUUGUGUGUGUUGGAGCCUAACACACGCGA [gtspaired],-0.393
7,UUUUUUUUUUGAGAGGGAUGCCCUCUUCUG [tttttgagapaired],0.436
8,GGUGGUUGUGUUGGCGUCUAACACAGCUAC [gtspaired],-0.486
9,UUUUUUUUUUGAGACGGUAACCGUUUCCAG [tttttgagapaired],0.631
10,GUGUGUUGUGUUGGCACCUAACACAGCGCA [gtspaired],-0.567
11,GGUUGUGGUGUUGGUCUCUAACACCAUAAC [gtspaired],-0.735
12,UUUUUUUUUUGAGAUGGUGUCUAUCUCCAG [tttttgagapaired],0.64
13,GUGUGUGGUGUUGGUCUCUAACACCAUACG [gtspaired],-0.804
14,GUGGUGUGUGUUGGCGUCUAACACAUACUA [gtspaired],-0.692
15,UUUUUUUUUUGAGACGGAAUCCGUUUCCUA [tttttgagapaired],0.0765
16,UUUUUUUUUUGAGAGCGGUGCGCUCUCCAG [tttttgagapaired],0.122
17,UUUUUUUUUUGAGACGGUAGCCGUUUCCAG [tttttgagapaired],0.639
18,GUGGUUGGUGUUGGCCUCUAACACCGACCA [gtspaired],-0.698
19,GUGGUGUGUGUUGGCCCCUAACACACAUCG [gtspaired],-0.383
20,UUUUUUUUUUGAGAUGGGAACCAUUUCCAG [tttttgagapaired],0.385
21,UUUUUUUUUUGAGACCGGAUCGGUCUUCUG [tttttgagapaired],0.562
22,UUUUUUUUUUGAGAUCGAGCCGAUCUCCUA [tttttgagapaired],0.127
23,UUUUUUUUUUGAGAGGGAUCCCCUCUCCUA [tttttgagapaired],0.263
24,UUUUUUUUUUGAGACGGAAUCCGUCUUCUG [tttttgagapaired],0.323
25,GUGUGUUGUGUUGGAUCCUAACACAGCACG [gtspaired],-0.87
26,GGUUGGUGUGUUGGCGUCUAACACAUCGAC [gtspaired],-0.713

row,Sequence,binding signal (log2 fold change)
1,GUGUUGUGUGUUGGAUUCUAACACACAGCG [gtspaired],-0.628
2,UUUUUUUUUUGAGAUGGAAUCCGUCUCCGG [tttttgagapaired],0.174
3,GUGUGGUGUGUUGGAAUCUAACACACCGCG [gtspaired],-0.192
4,GUGUUGUGUGUUGGUCUCUAACACACAGCG [gtspaired],-0.826
5,UUUUUUUUUUGAGACGGAGGCUGUCUUCUA [tttttgagapaired],0.915
6,UUUUUUUUUUGAGACGGACGCCGUCUCCUA [tttttgagapaired],0.557
7,UUUUUUUUUUGAGAGCGAACCGUUCUCCUA [tttttgagapaired],0.148
8,UUUUUUUUUUGAGAUCGAUACGAUCUCCGG [tttttgagapaired],0.0424
9,GUGGUUGGUGUUGGACUCUAACACCAAUCA [gtspaired],-0.581
10,GGUUGUGGUGUUGGCGUCUAACACCGCAGC [gtspaired],-0.447
11,UUUUUUUUUUGAGACCGACUCGGUCUUCUG [tttttgagapaired],0.636
12,GUGUGGUGUGUUGGUCUCUAACACAUCGCA [gtspaired],-0.895
13,UUUUUUUUUUGAGACUGUCUCAGUCUCCUA [tttttgagapaired],0.465
14,UUUUUUUUUUGAGAGGGACACCCUCUCCUG [tttttgagapaired],0.536
15,UUUUUUUUUUGAGACCGUGACGGUCUUCUA [tttttgagapaired],0.553
16,UUUUUUUUUUGAGACCGCAUCGGUCUCCUG [tttttgagapaired],0.543
17,UUUUUUUUUUGAGACUGGACCAGUCUUCUA [tttttgagapaired],0.473
18,GUGUGUGGUGUUGGUACCUAACACCAUACG [gtspaired],-0.719
19,UUUUUUUUUUGAGAUCGAAGCGAUCUCCAG [tttttgagapaired],0.279
20,GUGUGUGGUGUUGGCACCUAACACCGCACG [gtspaired],-0.68
21,UUUUUUUUUUGAGAUGGCUCCCAUCUCCAG [tttttgagapaired],0.697
22,UUUUUUUUUUGAGACGGACGCCGUUUCCAG [tttttgagapaired],0.534
23,UUUUUUUUUUGAGAGCGUACCGCUCUCCUG [tttttgagapaired],0.734
24,UUUUUUUUUUGAGAGCGUGCCGCUCUUCUA [tttttgagapaired],0.671
25,UUUUUUUUUUGAGAUCGUAGCGAUCUCCUG [tttttgagapaired],0.453
26,UUUUUUUUUUGAGAUGGUGCCCAUCUCCAG [tttttgagapaired],0.506

row,Sequence,binding signal (log2 fold change)
1,UUUUUUUUUUGAGAUGGGGACCAUUUCCAG [tttttgagapaired],0.659
2,GUGUGUUGUGUUGGUACCUAACACAGCGCG [gtspaired],-0.59
3,UUUUUUUUUUGAGAUGGUGGCCAUCUUCUG [tttttgagapaired],0.862
4,UUUUUUUUUUGAGACCGAGACGGUCUCCAG [tttttgagapaired],0.414
5,UUUUUUUUUUGAGACGGGAGCCGUCUCCAG [tttttgagapaired],0.606
6,UUUUUUUUUUGAGACGGUGUCCGUCUCCAG [tttttgagapaired],0.799
7,GUGUUGUGUGUUGGCUUCUAACACACAACG [gtspaired],-0.809
8,UUUUUUUUUUGAGACGGACACUGUCUCCAG [tttttgagapaired],0.866
9,UUUUUUUUUUGAGAGCGAUGCGUUCUCCGG [tttttgagapaired],0.272
10,GUUGUGUGUGUUGGUCUCUAACACACGCGA [gtspaired],-0.586
11,UUUUUUUUUUGAGAUGGAUUCCAUCUCCUA [tttttgagapaired],-0.178
12,UUUUUUUUUUGAGAUGGUUUCCGUCUCCAG [tttttgagapaired],0.634
13,GGUGGUUGUGUUGGACCCUAACACAGCUAC [gtspaired],-0.442
14,UUUUUUUUUUGAGAACGUAGCGUUCUUCUG [tttttgagapaired],0.378
15,UUUUUUUUUUGAGAGGGCUACCCUCUUCUA [tttttgagapaired],0.738
16,GUGUUGUGUGUUGGAAUCUAACACACAGCG [gtspaired],-0.337
17,UUUUUUUUUUGAGACGGCCGCCGUCUCCAG [tttttgagapaired],0.93
18,UUUUUUUUUUGAGACUGAGUCAGUUUCCGG [tttttgagapaired],0.533
19,UUUUUUUUUUGAGACGGAUUCCGUCUCCUA [tttttgagapaired],0.272
20,UUUUUUUUUUGAGACUGCGUCAGUCUCCAG [tttttgagapaired],0.716
21,UUUUUUUUUUGAGACGGAGUCCGUUUCCUA [tttttgagapaired],0.288
22,UUCCUCUCUCCUCCAGUGGAGGGGGGAGGA [ctspaired],-0.224
23,UUUUUUUUUUGAGACUGGGUCAGUCUUCUA [tttttgagapaired],0.395
24,UUUUUUUUUUGAGAUCGAAACGGUCUCCUA [tttttgagapaired],0.0607
25,UUUUUUUUUUGAGAGUGCUACAUUCUCCAG [tttttgagapaired],0.0988
